{"source": "paper PMC5892938", "note": "The list shows a part of the results. At the low end of the ranking, values are background and their order means little.", "data": [{"biological_target": "GST-SBP-SLBP (stem-loop binding protein) (UniProt Q14493)", "experiment": "targeted RNA Bind-n-Seq;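 further: DESeq read counts versus GST-SBP nonspecific binding control pulldown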", "conditions": "RBNS binding buffer: 25 mM Tris pH 7.5, 150 mM KCl, 3 mM MgCl2, 0.1% Tween, 0.5 mg/mL BSA, 1 mM DTT; 27 nM protein, 750 pM RNA pool; temperature not stated; high values mean tight binding", "values": [{"sequence": "GGUCACGUCUCAAUCAACUCAACUUCAGGAGUUUACUCCUGCUAUUUCAACAGCUCGCAGUCAAG", "binding signal (log2 fold change)": 0.102}, {"sequence": "GGUCACGUCUCAAUCAACUCUCUAGAGGGGGGGAAAACCCCUUUGCCCUCAUACUCAACAGCUCGCAGUCAAG", "binding signal (log2 fold change)": -0.291}, {"sequence": "GGUCACGUCUCAAUCAACUCAUUCUCAGGAGUUUGCUCCUGCAUUCUCAACAGCUCGCAGUCAAG", "binding signal (log2 fold change)": 0.274}, {"sequence": "GGUCACGUCUCAAUCAACUCAUCUUCAGGAGUUUGCUCCUGCUUUCUCAACAGCUCGCAGUCAAG", "binding signal (log2 fold change)": -0.0368}, {"sequence": "GGUCACGUCUCAAUCAACUCUUCUCCCAGGGAAAUCCCUGGCUAACUCAACAGCUCGCAGUCAAG", "binding signal (log2 fold change)": -0.0845}, {"sequence": "GGUCACGUCUCAAUCAACUCAACGCCAGGAGUUUACUCCUGUUAUCUCAACAGCUCGCAGUCAAG", "binding signal (log2 fold change)": -0.487}, {"sequence": "GGUCACGUCUCAAUCAACUCAUCUUCCAGGGAAAGCCCUGGUUUUUUCAACAGCUCGCAGUCAAG", "binding signal (log2 fold change)": -0.00937}, {"sequence": "GGUCACGUCUCAAUCAACUCAGUUUCAGGAGUUUACUCCUGUUUUCUCAACAGCUCGCAGUCAAG", "binding signal (log2 fold change)": 0.179}, {"sequence": "GGUCACGUCUCAAUCAACUCUUUCUCAGGAGUUUCCUCCUGUAUUUUCAACAGCUCGCAGUCAAG", "binding signal (log2 fold change)": 0.0536}, {"sequence": "GGUCACGUCUCAAUCAACUCUAUUCCAGGAGUUUACUCCUGUUUUUUCAACAGCUCGCAGUCAAG", "binding signal (log2 fold change)": -0.153}, {"sequence": "GGUCACGUCUCAAUCAACUCUAUUCCAGGAGUUUUCUCCUGCUUACUCAACAGCUCGCAGUCAAG", "binding signal (log2 fold change)": -0.0707}, {"sequence": "GGUCACGUCUCAAUCAACUCAUUCCCAGGAGUUUUCUCCUGUUAUUUCAACAGCUCGCAGUCAAG", "binding signal (log2 fold change)": 0.0672}, {"sequence": "GGUCACGUCUCAAUCAACUCAUUCUCAGGAGUUUGCUCCUGUAUACUCAACAGCUCGCAGUCAAG", "binding signal (log2 fold change)": 0.0223}, {"sequence": "GGUCACGUCUCAAUCAACUCAUUUUCCAGGGAAAUCCCUGGCUAACUCAACAGCUCGCAGUCAAG", "binding signal (log2 fold change)": 0.233}, {"sequence": "GGUCACGUCUCAAUCAACUCUAUCGCAGGAGUUUACUCCUGGUUAUUCAACAGCUCGCAGUCAAG", "binding signal (log2 fold change)": -0.0705}, {"sequence": "GGUCACGUCUCAAUCAACUCAAUUUCAGGAGUUUGCUCCUGCUAUGUCAACAGCUCGCAGUCAAG", "binding signal (log2 fold change)": 0.0989}, {"sequence": "GGUCACGUCUCAAUCAACUCUACUCCCAGGGAAAUCCCUGGUAAACUCAACAGCUCGCAGUCAAG", "binding signal (log2 fold change)": -0.116}, {"sequence": "GGUCACGUCUCAAUCAACUCAAUCUCCAGGGAAACCCCUGGCAAUCUCAACAGCUCGCAGUCAAG", "binding signal (log2 fold change)": -0.0323}, {"sequence": "GGUCACGUCUCAAUCAACUCUAUUCCAGGAGUUUACUCCUGUAUUCUCAACAGCUCGCAGUCAAG", "binding signal (log2 fold change)": 0.0327}, {"sequence": "GGUCACGUCUCAAUCAACUCCCACGAGGGGGGGAAAACCCCUUUACCCUCUUCUUCAACAGCUCGCAGUCAAG", "binding signal (log2 fold change)": -0.0408}, {"sequence": "GGUCACGUCUCAAUCAACUCUUCCUCCAGGGAAACCCCUGGUAAUGUCAACAGCUCGCAGUCAAG", "binding signal (log2 fold change)": -0.295}, {"sequence": "GGUCACGUCUCAAUCAACUCAACUUCAGGAGUUUUCUCCUGUAAAUUCAACAGCUCGCAGUCAAG", "binding signal (log2 fold change)": 0.036}, {"sequence": "GGUCACGUCUCAAUCAACUCAUCUCCAGGAGUUUGCUCCUGCUUUUUCAACAGCUCGCAGUCAAG", "binding signal (log2 fold change)": -0.142}, {"sequence": "GGUCACGUCUCAAUCAACUCCUCAGAGGGGGGGAAAACCCCUUUACCCUCACUAUCAACAGCUCGCAGUCAAG", "binding signal (log2 fold change)": -0.225}, {"sequence": "GGUCACGUCUCAAUCAACUCAGUCUCAGGAGUUUCCUCCUGUAAAUUCAACAGCUCGCAGUCAAG", "binding signal (log2 fold change)": 0.0373}, {"sequence": "GGUCACGUCUCAAUCAACUCUUUCUCCAGGGAAAUCCCUGGUAUAUUCAACAGCUCGCAGUCAAG", "binding signal (log2 fold change)": -0.0357}, {"sequence": "GGUCACGUCUCAAUCAACUCAUUUUCAGGAGUUUACUCCUGCAUAUUCAACAGCUCGCAGUCAAG", "binding signal (log2 fold change)": -0.0347}, {"sequence": "GGUCACGUCUCAAUCAACUCAUUUUCAGGAGUUUCCUCCUGCUUUCUCAACAGCUCGCAGUCAAG", "binding signal (log2 fold change)": 0.0829}, {"sequence": "GGUCACGUCUCAAUCAACUCUAUCCCAGGAGUUUUCUCCUGUAUACUCAACAGCUCGCAGUCAAG", "binding signal (log2 fold change)": 0.273}, {"sequence": "GGUCACGUCUCAAUCAACUCUUUCCCCAGGGAAAACCCUGGCAAUCUCAACAGCUCGCAGUCAAG", "binding signal (log2 fold change)": 0.207}, {"sequence": "GGUCACGUCUCAAUCAACUCUUCGGAGGGGGGGAAAACCCCUUUACCCUCAAUCUCAACAGCUCGCAGUCAAG", "binding signal (log2 fold change)": 0.453}, {"sequence": "GGUCACGUCUCAAUCAACUCUAUCUCCAGGGAAAUCCCUGGCAAUGUCAACAGCUCGCAGUCAAG", "binding signal (log2 fold change)": 0.418}, {"sequence": "GGUCACGUCUCAAUCAACUCUAUCCCCAGGGAAACCCCUGGUUUAUUCAACAGCUCGCAGUCAAG", "binding signal (log2 fold change)": -0.04}, {"sequence": "GGUCACGUCUCAAUCAACUCACAAGAGGGGGGGAAAACCCCUUUGCCCUCACCAUCAACAGCUCGCAGUCAAG", "binding signal (log2 fold change)": 0.258}, {"sequence": "GGUCACGUCUCAAUCAACUCUCAAGAGGGGGGGAAAACCCCUUUACCCUCACCUUCAACAGCUCGCAGUCAAG", "binding signal (log2 fold change)": -0.182}, {"sequence": "GGUCACGUCUCAAUCAACUCCCCAGAGGGGGGGAAAACCCCUUUACCCUCGUAUUCAACAGCUCGCAGUCAAG", "binding signal (log2 fold change)": -0.324}, {"sequence": "GGUCACGUCUCAAUCAACUCAUUCCCAGGAGUUUCCUCCUGCUUAUUCAACAGCUCGCAGUCAAG", "binding signal (log2 fold change)": 0.0716}, {"sequence": "GGUCACGUCUCAAUCAACUCAUCCUCAGGAGUUUUCUCCUGUAUUCUCAACAGCUCGCAGUCAAG", "binding signal (log2 fold change)": 0.136}, {"sequence": "GGUCACGUCUCAAUCAACUCUUUCUCAGGAGUUUACUCCUGCAUAUUCAACAGCUCGCAGUCAAG", "binding signal (log2 fold change)": -0.0652}, {"sequence": "GGUCACGUCUCAAUCAACUCUUCUUCAGGAGUUUUCUCCUGUUAUGUCAACAGCUCGCAGUCAAG", "binding signal (log2 fold change)": 0.207}, {"sequence": "GGUCACGUCUCAAUCAACUCUCAAGAGGGGGGGAAAACCCCUUUGCCCUCGUAAUCAACAGCUCGCAGUCAAG", "binding signal (log2 fold change)": 0.452}, {"sequence": "GGUCACGUCUCAAUCAACUCACAUGAGGGGGGGAAAACCCCUUUACCCUCCAAAUCAACAGCUCGCAGUCAAG", "binding signal (log2 fold change)": -0.566}, {"sequence": "GGUCACGUCUCAAUCAACUCAUUCUCAGGAGUUUUCUCCUGUUUACUCAACAGCUCGCAGUCAAG", "binding signal (log2 fold change)": -0.111}, {"sequence": "GGUCACGUCUCAAUCAACUCUACUUCCAGGGAAAUCCCUGGUAUACUCAACAGCUCGCAGUCAAG", "binding signal (log2 fold change)": 0.0107}, {"sequence": "GGUCACGUCUCAAUCAACUCAAUCUCCAGGGAAAUCCCUGGCAAUGUCAACAGCUCGCAGUCAAG", "binding signal (log2 fold change)": -0.0757}, {"sequence": "GGUCACGUCUCAAUCAACUCCUUCGAGGGGGGGAAAACCCCUUUACCCUCAAAAUCAACAGCUCGCAGUCAAG", "binding signal (log2 fold change)": 0.173}, {"sequence": "GGUCACGUCUCAAUCAACUCUUAAGAGGGGGGGAAAACCCCUUUGCCCUCACAAUCAACAGCUCGCAGUCAAG", "binding signal (log2 fold change)": 0.135}]}]}
